# The other results are listed elsewhere or left out.
# B1: PhoQ; a variant is named by its letters at X, in order, P23837 (parent)
# chain: MKKLLRLFFPLSLRVRFLLATAAVVLVLSLAYGMVALIGYSVSFDKTTFRLLRGESNLFYTLAKWENNKLHVELPENIDKQSPTMTLIYDENGQLLWAQRDVPWLMKMIQPDWLKSNGFHEIEADVNDTSLLLSGDHSIQQQLQEVREDDDDAEMTHSVAVNVYPATSRMPKLTIVVVDTIPVELKSSYMVWSWFIYVLSANLLLVIPLLWVAAWWSLRPIEALAKEVRELEEHNRELLNPATTRELTSLVRNLNRLLKSERERYDKYRTTLTDLTHSLKTPLXXLQXXLRSLRSEKMSVSDAEPVMLEQISRISQQIGYYLHRASMRGGTLLSRELHPVAPLLDNLTSALNKVYQRKGVNISLDISPEISFVGEQNDFVEVMGNVLDNACKYCLEFVEISARQTDEHLYIVVEDDGPGIPLSKREVIFDRGQRVDTLRPGQGVGLAVAREITEQYEGKIVAGESMLGGARMEVIFGRQHSAPKDE
# Variants of: B1
# Assay: enrichment ratio after two sorts for PhoP signalling (ratio (wild type AVST 3.29)); higher = more functional
# Conditions: with PhoP (E. coli)
row,Variant,enrichment ratio
1,WLTK,≤ 0.25
2,SRTT,≤ 0.25
3,GHCP,≤ 0.25
4,YKNN,≤ 0.25
5,GYLP,≤ 0.25
6,YVTP,≤ 0.25
7,PTID,≤ 0.25
8,PRPV,≤ 0.25
9,EQPE,≤ 0.25
10,FHWN,≤ 0.25
11,ANYY,≤ 0.25
12,HWHE,≤ 0.25
13,QCDQ,≤ 0.25
14,HCSE,≤ 0.25
15,WDGV,≤ 0.25
16,FKKI,≤ 0.25
17,TDYC,≤ 0.25
18,HNEP,≤ 0.25
19,VDHV,≤ 0.25
20,RCYV,≤ 0.25
21,IQFI,≤ 0.25
22,FSKI,≤ 0.25
23,NGIP,≤ 0.25
24,YCCE,≤ 0.25

row,Variant,enrichment ratio
1,DNVV,≤ 0.25
2,WFHA,≤ 0.25
3,MVMP,≤ 0.25
4,GLRY,≤ 0.25
5,PLRN,≤ 0.25
6,WMCT,≤ 0.25
7,HVYG,≤ 0.25
8,VVYK,≤ 0.25
9,KIGT,≤ 0.25
10,GGRW,≤ 0.25
11,RRKV,≤ 0.25
12,RKRM,≤ 0.25
13,GFRV,≤ 0.25
14,LLDW,≤ 0.25
15,YNTH,≤ 0.25
16,VMIQ,≤ 0.25
17,TWWG,≤ 0.25
18,EHRP,≤ 0.25
19,FTIQ,≤ 0.25
20,PELS,≤ 0.25
21,EEFC,≤ 0.25
22,HGWC,≤ 0.25
23,RLVL,≤ 0.25
24,NAHY,≤ 0.25

row,Variant,enrichment ratio
1,AYCW,≤ 0.25
2,HPTD,≤ 0.25
3,HHNL,≤ 0.25
4,VVLK,≤ 0.25
5,FRWN,≤ 0.25
6,IWVG,≤ 0.25
7,YTPD,≤ 0.25
8,PYIT,≤ 0.25
9,QPWY,≤ 0.25
10,YLLW,≤ 0.25
11,NLLI,≤ 0.25
12,SDVY,0.998
13,WEMY,≤ 0.25
14,NKMT,≤ 0.25
15,FMMC,≤ 0.25
16,WYLK,≤ 0.25
17,WLWS,≤ 0.25
18,YFMR,≤ 0.25
19,KKLP,≤ 0.25
20,YCRK,≤ 0.25
21,THIM,≤ 0.25
22,VKPP,≤ 0.25
23,SPAP,≤ 0.25
24,YFSN,≤ 0.25

row,Variant,enrichment ratio
1,QNIP,≤ 0.25
2,MDIT,≤ 0.25
3,DSPQ,≤ 0.25
4,LYGM,0.313
5,AVVH,9.17
6,ESAN,≤ 0.25
7,PSWD,≤ 0.25
8,NSTS,≤ 0.25
9,RYMT,≤ 0.25
10,FAKR,≤ 0.25
11,IERQ,≤ 0.25
12,PQWV,≤ 0.25
13,HLSI,0.357
14,AEKH,≤ 0.25
15,FLPQ,≤ 0.25
16,AKNQ,≤ 0.25
17,NYWM,≤ 0.25
18,IWPT,≤ 0.25
19,RVER,≤ 0.25
20,NHYT,≤ 0.25
21,PFNQ,≤ 0.25
22,AYLW,≤ 0.25
23,NQTE,≤ 0.25
24,QTSN,2.91

row,Variant,enrichment ratio
1,NKPS,≤ 0.25
2,DIVC,≤ 0.25
3,GFFY,≤ 0.25
4,AFSY,≤ 0.25
5,NDAE,≤ 0.25
6,LTRF,≤ 0.25
7,MLIV,≤ 0.25
8,RVRD,≤ 0.25
9,TNGW,≤ 0.25
10,LARR,≤ 0.25
11,HKTM,≤ 0.25
12,THRE,≤ 0.25
13,HRAT,≤ 0.25
14,LKAS,≤ 0.25
15,GECF,4.68
16,TIFW,≤ 0.25
17,VPMH,≤ 0.25
18,QERN,≤ 0.25
19,KDRH,≤ 0.25
20,EHHP,≤ 0.25
21,KCVG,≤ 0.25
22,LPSV,≤ 0.25
23,MIGY,4.9
24,YGDW,≤ 0.25

row,Variant,enrichment ratio
1,PQIT,≤ 0.25
2,NWEV,≤ 0.25
3,SGPL,≤ 0.25
4,DYES,≤ 0.25
5,FFAN,≤ 0.25
6,KYMC,≤ 0.25
7,LRTA,≤ 0.25
8,TFLG,11.8
9,VLDR,≤ 0.25
10,WDMK,≤ 0.25
11,GSKL,≤ 0.25
12,AKAS,9.64
13,DQTQ,≤ 0.25
14,QCFY,≤ 0.25
15,HALW,≤ 0.25
16,QKPS,≤ 0.25
17,VFCM,≤ 0.25
18,PPFL,≤ 0.25
19,MGTR,≤ 0.25
20,WQLW,≤ 0.25
21,SCMP,≤ 0.25
22,RLHM,≤ 0.25
23,QYFH,≤ 0.25
24,MDKQ,≤ 0.25

row,Variant,enrichment ratio
1,MTEY,≤ 0.25
2,VVNR,≤ 0.25
3,YKPY,≤ 0.25
4,DTPL,≤ 0.25
5,LNWY,≤ 0.25
6,NSTV,≤ 0.25
7,TSSK,≤ 0.25
8,YRNF,≤ 0.25
9,WMFD,≤ 0.25
10,PYLR,≤ 0.25
11,GPLI,≤ 0.25
12,MWGL,≤ 0.25
13,YTMC,≤ 0.25
14,MTRW,≤ 0.25
15,LQSD,≤ 0.25
16,VFVI,≤ 0.25
17,IQHN,≤ 0.25
18,FTCS,≤ 0.25
19,YWFQ,≤ 0.25
20,DVFN,≤ 0.25
21,NLFA,≤ 0.25
22,QNTA,≤ 0.25
23,RQVL,≤ 0.25
24,LGSD,≤ 0.25

row,Variant,enrichment ratio
1,QFLH,≤ 0.25
2,TIKG,≤ 0.25
3,LVKQ,≤ 0.25
4,YDYS,≤ 0.25
5,MAAT,≤ 0.25
6,HNCS,≤ 0.25
7,DSCA,≤ 0.25
8,LDKF,≤ 0.25
9,ENLA,≤ 0.25
10,DLSR,≤ 0.25
11,GYWR,≤ 0.25
12,VALD,≤ 0.25
13,MTIS,≤ 0.25
14,QNSR,≤ 0.25
15,NWYV,≤ 0.25
16,WNLA,≤ 0.25
17,PFIN,≤ 0.25
18,GHPN,≤ 0.25
19,LQYD,≤ 0.25
20,KTST,≤ 0.25
21,GQPR,≤ 0.25
22,YFMQ,≤ 0.25
23,RWYI,≤ 0.25
24,VKDM,≤ 0.25

row,Variant,enrichment ratio
1,DPSD,≤ 0.25
2,KLQY,≤ 0.25
3,RESG,≤ 0.25
4,MYLI,0.312
5,HGPM,≤ 0.25
6,LQQK,≤ 0.25
7,IFFG,≤ 0.25
8,AANR,≤ 0.25
9,PCNQ,≤ 0.25
10,MEVR,2.31
11,RKMP,≤ 0.25
12,LNKF,≤ 0.25
13,RQIY,≤ 0.25
14,VSHR,≤ 0.25
15,VETH,≤ 0.25
16,MTRK,≤ 0.25
17,HCFM,≤ 0.25
18,HGCM,≤ 0.25
19,RGAC,≤ 0.25
20,HQFT,≤ 0.25
21,KRAR,≤ 0.25
22,PDMD,≤ 0.25
23,TMSC,10.9
24,MPSM,≤ 0.25

row,Variant,enrichment ratio
1,NWLP,≤ 0.25
2,KLRK,≤ 0.25
3,IHRY,≤ 0.25
4,FEMA,≤ 0.25
5,FVTK,≤ 0.25
6,WGWR,≤ 0.25
7,IWRM,≤ 0.25
8,NAYV,≤ 0.25
9,VCFN,≤ 0.25
10,LGAA,≤ 0.25
11,AAGG,≤ 0.25
12,KQLE,≤ 0.25
13,SETR,0.48
14,KANM,≤ 0.25
15,FKKH,≤ 0.25
16,FIGQ,≤ 0.25
17,KNLV,≤ 0.25
18,EYGH,≤ 0.25
19,TRIL,5.95
20,TCLH,1.39
21,ELPR,≤ 0.25
22,PHLF,≤ 0.25
23,VLMN,≤ 0.25
24,LNLV,≤ 0.25

row,Variant,enrichment ratio
1,NSDF,≤ 0.25
2,IRCW,≤ 0.25
3,LIAS,≤ 0.25
4,HDQY,≤ 0.25
5,APQQ,≤ 0.25
6,YWNY,≤ 0.25
7,ICNS,≤ 0.25
8,WQQN,≤ 0.25
9,CIWI,≤ 0.25
10,PKTT,≤ 0.25
11,YSVI,4.17
12,PSFS,≤ 0.25
13,WKDC,≤ 0.25
14,KFCT,≤ 0.25
15,SSKL,≤ 0.25
16,SHNM,3.62
17,YLNQ,≤ 0.25
18,MVSY,≤ 0.25
19,PSGF,≤ 0.25
20,GIAV,9.01
21,LSEM,≤ 0.25
22,WNLN,≤ 0.25
23,IFAC,≤ 0.25
24,KMGE,≤ 0.25

row,Variant,enrichment ratio
1,FIHT,≤ 0.25
2,QSSI,4.18
3,QHTR,≤ 0.25
4,EEMF,≤ 0.25
5,IRCI,≤ 0.25
6,TTCK,5.62
7,IREY,≤ 0.25
8,RTIC,≤ 0.25
9,QPMS,≤ 0.25
10,NWGD,≤ 0.25
11,WNAQ,≤ 0.25
12,ALPM,≤ 0.25
13,EQFK,≤ 0.25
14,TKRV,≤ 0.25
15,SIFT,≤ 0.25
16,GETH,≤ 0.25
17,FHTV,≤ 0.25
18,PFYY,≤ 0.25
19,RVYE,≤ 0.25
20,WMVM,≤ 0.25
21,NKPG,≤ 0.25
22,YFCP,≤ 0.25
23,EAPQ,≤ 0.25
24,MWID,≤ 0.25

row,Variant,enrichment ratio
1,LFDF,≤ 0.25
2,ELGV,≤ 0.25
3,KKWC,≤ 0.25
4,DVPH,≤ 0.25
5,AQLL,9.66
6,SCKS,≤ 0.25
7,TAWC,11.3
8,FSHP,≤ 0.25
9,INQY,≤ 0.25
10,VQYP,≤ 0.25
11,TVVM,≤ 0.25
12,QHQN,≤ 0.25
13,FRSA,≤ 0.25
14,RWRV,≤ 0.25
15,QWHL,≤ 0.25
16,QWSN,≤ 0.25
17,TANF,7.67
18,WMLW,≤ 0.25

# Reference: a collection of fitness landscapes (doi:10.1126/science.1257360)
